Test results from the supplement of paper PMC9151546.
Single values are uncertain, as repeats are few or missing.

Legend:
CHO-K1 [1] = test: hypodiploid nuclei frequency (% of nucleated events); higher = more hypodiploid events (aneugenic)
Method: (§1)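 Flow-cytometric in vitro micronucleus assay (Litron MicroFlow) in CHO-K1 cells in 96-well plates, 19 concentrations (4.5-200 µM, n=1 per concentration). Without S9, cells were exposed for 24 h and sampled at 48 h. With Aroclor 1254-induced rat liver S9, cells were exposed for 3-4 h and sampled at 27-28 h. Read-outs are %MN and %hypodiploid nuclei relative to nucleated events, and relative survival as the nuclei-to-bead ratio versus the 1% DMSO vehicle control (x100).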

CHO-K1 [2] = test: micronucleus frequency (% of nucleated events); higher = more micronuclei (genotoxic)
CHO-K1 [3] = test: relative survival (nuclei to bead ratio vs DMSO control) (% of vehicle control); higher = more surviving cells
Method: as §1
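Throughout, for hypodiploid nuclei frequency (% of nucleated events): hypodiploid nuclei gated on a flow cytometer with 488 nm excitation after SYTOX Green staining, cultures at 37 °C, positive controls vinblastine without S9 and cyclophosphamide with S9.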
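Throughout, for micronucleus frequency (% of nucleated events): cells lysed with nuclei stained by SYTOX Green, then micronucleus-gated events counted against nucleated events by flow cytometry with 488 nm excitation.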
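Throughout, for relative survival (nuclei to bead ratio vs DMSO control): Lysed-cell nuclei stained with SYTOX Green and counted against counting beads by flow cytometry at 488 nm excitation, with vinblastine (no S9) and cyclophosphamide (plus S9) as positive controls.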

OC1CCCCC1 [Cyclohexanol]
Details	hypodiploid nuclei frequency, CHO-K1 [1] [%]	micronucleus frequency, CHO-K1 [2] [%]	relative survival, CHO-K1 [3]
concentration: 4.55 (µM), S9 metabolic activation: with S9, exposure time: 3-4 hours	0.2	1.26	110
concentration: 4.55 (µM), S9 metabolic activation: without S9, exposure time: 24 hours	0.38	1.5	104
concentration: 5.69 (µM), S9 metabolic activation: with S9, exposure time: 3-4 hours	0.24	1.26	108
concentration: 5.69 (µM), S9 metabolic activation: without S9, exposure time: 24 hours	0.4	1.82	108
concentration: 7.11 (µM), S9 metabolic activation: with S9, exposure time: 3-4 hours	0.2	1.1	112
concentration: 7.11 (µM), S9 metabolic activation: without S9, exposure time: 24 hours	0.46	1.98	104
concentration: 8.88 (µM), S9 metabolic activation: with S9, exposure time: 3-4 hours	0.38	1.2	106
concentration: 8.88 (µM), S9 metabolic activation: without S9, exposure time: 24 hours	0.46	1.72	119
concentration: 11.1 (µM), S9 metabolic activation: with S9, exposure time: 3-4 hours	0.2	1.42	115
concentration: 11.1 (µM), S9 metabolic activation: without S9, exposure time: 24 hours	0.68	1.3	106
concentration: 13.9 (µM), S9 metabolic activation: with S9, exposure time: 3-4 hours	0.28	1.24	100
concentration: 13.9 (µM), S9 metabolic activation: without S9, exposure time: 24 hours	0.52	1.7	114
concentration: 17.4 (µM), S9 metabolic activation: with S9, exposure time: 3-4 hours	0.12	1.06	130
concentration: 17.4 (µM), S9 metabolic activation: without S9, exposure time: 24 hours	0.36	2.06	91
concentration: 21.7 (µM), S9 metabolic activation: with S9, exposure time: 3-4 hours	0.18	1.58	139
concentration: 21.7 (µM), S9 metabolic activation: without S9, exposure time: 24 hours	0.66	2.3	101
concentration: 27.1 (µM), S9 metabolic activation: with S9, exposure time: 3-4 hours	0.18	1.32	103
concentration: 27.1 (µM), S9 metabolic activation: without S9, exposure time: 24 hours	0.32	1.58	98
concentration: 33.9 (µM), S9 metabolic activation: with S9, exposure time: 3-4 hours	0.38	1.02	110
concentration: 33.9 (µM), S9 metabolic activation: without S9, exposure time: 24 hours	0.48	1.44	92.8
concentration: 42.4 (µM), S9 metabolic activation: with S9, exposure time: 3-4 hours	0.18	1.42	127
concentration: 42.4 (µM), S9 metabolic activation: without S9, exposure time: 24 hours	0.54	1.32	103
concentration: 53 (µM), S9 metabolic activation: with S9, exposure time: 3-4 hours	0.2	1.28	104
concentration: 53 (µM), S9 metabolic activation: without S9, exposure time: 24 hours	0.36	2.1	146
concentration: 66.2 (µM), S9 metabolic activation: with S9, exposure time: 3-4 hours	0.28	1.24	104
concentration: 66.2 (µM), S9 metabolic activation: without S9, exposure time: 24 hours	0.72	2.46	128
concentration: 82.7 (µM), S9 metabolic activation: with S9, exposure time: 3-4 hours	0.4	1.82	96.3
concentration: 82.7 (µM), S9 metabolic activation: without S9, exposure time: 24 hours	0.86	2.14	108
concentration: 103 (µM), S9 metabolic activation: with S9, exposure time: 3-4 hours	0.28	1.18	100
concentration: 103 (µM), S9 metabolic activation: without S9, exposure time: 24 hours	0.6	2.56	130
concentration: 129 (µM), S9 metabolic activation: with S9, exposure time: 3-4 hours	0.24	1.28	79.7
concentration: 129 (µM), S9 metabolic activation: without S9, exposure time: 24 hours	0.74	1.46	103
concentration: 162 (µM), S9 metabolic activation: with S9, exposure time: 3-4 hours	0.12	1.6	89.9
concentration: 162 (µM), S9 metabolic activation: without S9, exposure time: 24 hours	0.72	2.26	108
concentration: 202 (µM), S9 metabolic activation: with S9, exposure time: 3-4 hours	0.2	1.18	104
concentration: 202 (µM), S9 metabolic activation: without S9, exposure time: 24 hours	0.92	2.6	84
